Where “and” joins values, the source holds several entries; their conditions need not be identical. Identical values can stand only once.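 Each compound was tested at five concentrations against cells in 96-well plates for 48 hours. GI50 marks 50% less growth. TGI: total growth inhibition.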 Square brackets hold non-standard residues; d marks the D form. Peptide text beside a SMILES is read from it. Phe(F5) = N[CH](Cc1c(F)c(F)c(F)c(F)c1F)C(=O)O Bounds are passed on as bounds.

The subject of this assay is NCI-H322M lung. Nature of the assay: NCI anticancer screen, dose series, 48 h.
For `COc1ccc2c(c1)CCC1C2CCC2(C)C1CCC2(O)CNC(=O)CCCCC1CCSS1` (stereo unspecified), the GI50 was 74.4 µM and the TGI is over 100 µM.
With `O=C(O)C1CC2C3CCC2C1C3=O` (stereo unspecified), the TGI is over 100 µM.
In the case of `CC1(C)CCC2(C(=O)OC3OC(CO)C(O)C(O)C3O)CC[C@]3(C)C(=CCC4C5(C)CC[C@H](OC6OC(C(=O)O)C(O)C(O)C6O)C(C)(C)C5CCC43C)C2C1` (stereo partly specified), the GI50 is 4.08 µM and the TGI came out at 11.7 µM.
Turning to `CCOC(=O)c1c2c(n(CC(C)C)c1C)-c1nc[nH]c1C(=O)C2=O`, the GI50 is 15.6 µM and the TGI was determined as 28.9 µM.
`CC1(Sc2ccccc2)CN(Cc2ccccc2)C1=O` (stereo unspecified): the TGI is over 100 µM.
`O=C(CCn1[nH]c(=O)c(Cl)c(Cl)c1=O)NOCCCc1ccccc1` gave a TGI of over 100 µM.
Still for that read-out and setting: to `CC1CC2C(=O)NC(=O)C2c2[nH]c3ccccc3c21` (stereo unspecified) belongs over 100 µM.
On to `C[C@H]1[C@H](C)N(Cc2ccccc2)P(=O)(C(O)/C=C/c2ccccc2)N1Cc1ccccc1` (stereo partly specified), for which the TGI is over 25 µM.
Still for that read-out and setting: to `O=C(O)CSSCC(=O)O` belongs over 100 µM; to `CC1=C(C(=O)Nc2cccc3c2C(=O)NC3=O)CC(C(=O)Nc2cccc3c2C(=O)NC3=O)=C(C)N1`, over 100 µM; to `Cc1occc1C(=S)Nc1ccc(Cl)c(C(=O)OCC(F)(F)F)c1`, 78.1 µM.
`Cn1nc(Cc2ccc(Cl)cc2)n(N)c1=O` showed a TGI of over 100 µM.
Compound `NC(=O)OCC(COc1ccc(Cl)cc1)OC(=O)c1ccccc1Cl` (stereo unspecified) gave a TGI of over 100 µM.
Compound `CN(C)c1ccc(-c2c(C#N)c(N)[nH]c(=S)c2C#N)cc1` registered a TGI of over 100 µM.
Consider `COC(=O)C(CC(C)C)NC(=O)C(Cc1cnc[nH]1)NC(=O)CNC(=O)C(NC(=O)C(C)NC(=O)C(Cc1c[nH]c2ccccc12)NC(=O)C(CCC(=O)O)NC(=O)C(N)Cc1c(F)c(F)c(F)c(F)c1F)C(C)C` (stereo unspecified) (H-[Phe(F5)]EWAVGHL-OMe; configuration not given here), for which the GI50 was over 100 µM and the TGI was over 100 µM.
Compound `Fc1cc(C2=C[C@H](c3ccc(Cl)cc3)NC(=S)N2)c(Cl)cc1Cl` returned a TGI of over 100 µM.
Still for that read-out and setting: to `Cn1c(O)c(C(=O)Nc2cccs2)c(=O)[nH]c1=S` belongs 52.1 µM.
On to `COc1ccccc1[N-]C(C1=C([O-])c2ccccc2C1=O)c1ccccc1.COc1ccccc1[N-]C(C1=C([O-])c2ccccc2C1=O)c1ccccc1.[Cu+2]` (stereo unspecified), for which the GI50 was 5.23 µM and the TGI is 36.8 µM.
Turning to `N#CC(C#N)=Cc1ccc(-c2ccc(-c3nc4ccccc4s3)cc2)o1`, the GI50 is 24.8 µM and the TGI is over 100 µM.
Consider `O=C1c2cc3c(cc2CC12Cc1cc4c(cc1C2=O)CCCC4)CCCC3`, for which the TGI is over 100 µM.
On the same count and under the same terms, to `O=C1NC(N2CCOCC2)=N/C1=C\c1cccs1` belongs over 100 µM; to `O=C(NC(C(F)(F)F)(C(F)(F)F)P(=O)(c1ccccc1)c1ccccc1)C(C(F)(F)F)C(F)(F)F`, over 100 µM; to `O=c1[nH]c(=O)n(C2OC(CO)C(O)C(F)C2O)cc1F` (stereo unspecified), over 100 µM.
Still for that read-out and setting: to `Fc1c(F)c(C(F)(F)F)c(F)c(F)c1N/N=C\c1c[nH]c2ccccc12` belongs 18.9 µM.
Take `COc1ccc2c(c1)CC[C@@H]1[C@@H]2CC[C@]2(C)C(=O)C3(CCCCC3)C[C@@H]12`: the GI50 was over 100 µM and the TGI is over 100 µM.
Turning to `NCCCNCCCNCCCN`, the TGI is over 100 µM.
The same measure, in the same setting: to `CCOC(=O)/C(C)=C\[C@@]1(C)O[C@@H](C)[C@@](C)(OC(C)=O)[C@@H]1OC(C)=O` belongs over 100 µM.
`O=C(O)c1c[nH]c2c(Sc3ccccc3)nccc2c1=O` returned a TGI of over 100 µM.
On the same count and under the same terms, the figure for `CCOC(=O)C(c1c[nH]c2ccccc12)(c1c[nH]c2ccccc12)c1c[nH]c2ccccc12` is 90.6 µM.
With `c1ccc2nc(Cn3c[n+](Cc4ccc5ccccc5n4)c4ccccc43)ccc2c1`, the GI50 is 3.68 µM and the TGI turned out to be 17.1 µM.
As for `CC1(C)C(=O)N(O)C(C)(C)N1O`, the TGI was over 10 µM.
Turning to `Cc1cc(N2CCCCC2)nc(N(CCNc2ccnc3cc(Cl)ccc23)Cc2ccco2)n1`, the GI50 is 1.81 µM and the TGI is 4.44 µM.
`CC(C)c1ccccc1SC1CC(=O)CC(Sc2ccccc2C(C)C)C12O[C@H](c1ccccc1)[C@@H](c1ccccc1)O2` (stereo partly specified) returned a TGI of over 100 µM.
Still for that read-out and setting: the figure for `C=C1C(=O)O[C@H]2C[C@@H](C)[C@@H]3CC(=O)OC[C@@]3(C)CC12` (stereo partly specified) is 75.7 µM; for `NCCCCNCCCN1CC1` it is 1.67 µM.
Consider `CCc1nnc(CC)n1NCCCC(=O)O`, for which the TGI was over 100 µM.
On the same count and under the same terms, the figure for `COc1cc2c(/C=C3/C(=O)Nc4ccc(Cl)cc43)c(Cl)n(Cc3ccccc3)c2cc1C` is 4.93 µM.
On the same count and under the same terms, the figure for `Nc1cc(=O)[nH]c(SC2=NC(N)CC(O)C2)n1` (stereo unspecified) is over 100 µM; for `COC(=O)CCC(=O)N1Cc2cc(C)ccc2N(C(=O)CCC(=O)OC)Cc2cc(C)ccc21` it is over 100 µM.
The same measure, in the same setting: the figure for `CC#COP(=O)(OCC)OCC` is over 100 µM.
As for `CN(C(=O)C12C3C4C1C1C2C3C41I)C(C)(C)C` (stereo unspecified), the TGI was over 100 µM.
Same read-out and setting: the figure for `Cc1ccc(C(=O)Nc2ccc(S(=O)(=O)O)c3cc(S(=O)(=O)O)cc(S(=O)(=O)O)c23)cc1NC(=O)c1cccc(N)c1` is over 100 µM; for `CC(=O)/C(=C\c1ccco1)C(=O)Nc1ccccc1` it is over 100 µM.
On the same count and under the same terms, the figure for `C=C(c1ccccc1)C1ON(C)CCc2cc(OC)c(OC)cc21` (stereo unspecified) is over 100 µM.
For `CCc1ccc(NC(=O)Nc2c[nH]c3ccccc23)cc1`, the GI50 was 35.1 µM and the TGI was over 80.6 µM.
In the same order, the values of `CC12CCC(=O)C(O1)C1C(=O)c3cc4ccccc4cc3C(=O)C12` (stereo unspecified) are 28.1 µM and 92.6 µM.
With `Nc1ccn(C2CC(O)C(COP(O)(=S)OC3CC(n4ccc(N)nc4=O)OC3CO)O2)c(=O)n1` (stereo unspecified), the TGI was over 100 µM.
Still for that read-out and setting: to `CC(=O)OC1c2ccccc2CC2(OC(C)=O)c3ccccc3C12` (stereo unspecified) belongs over 100 µM; to `CCOC(=O)c1cc(Sc2ccc(N)c(C(=O)OCC)c2)ccc1N`, over 100 µM.
With `C=C(C)[C@@H]1CC=C(CO)CC1`, the GI50 is over 10 µM; the TGI is > 10 µM and 956 µM.
For `Cc1ccc2c(c1)C1(C)OC(CC(N)C1O)O2` (stereo unspecified), the TGI was over 100 µM.
For the compound `CC[C@](C)(O)C(=O)O[C@H]1C(=O)O[C@@H]2C[C@H]3C(C)=CC(=O)[C@@H](O)[C@]3(C)[C@H]3[C@@]4(O)OC[C@]32[C@@H]1[C@@H](C)[C@H]4O`, the GI50 is 0.371 µM; the TGI was 18.8 µM and 2.88 µM.
`N#CC1(C#N)C2CCCCC23OC(=N)C1(C#N)C(c1ccco1)O3` (stereo unspecified): the TGI is over 100 µM.
For the compound `CC1CC2OC(=O)C3CC(O)CC(=C23)[C@@]12C[C@@H](c1ccoc1)OC2=O` (stereo partly specified), the TGI was over 100 µM.
The compound `Oc1ccccc1/C=N/Nc1nnc2c3ccccc3c3ccccc3c2n1` displayed a TGI of over 100 µM.
On the same count and under the same terms, to `COc1ccc(OC)c2sc(N3C(=O)/C(=C/Cc4ccco4)N=C3c3ccccc3)nc12` belongs over 100 µM.
Same read-out and setting: to `COc1cc(NC(C)=O)c2[nH]c3c(C)cc(NC(C)=O)c(C)c3c2c1` belongs over 100 µM; to `C=C1C(=O)OC2CC3(C)C=CC(=O)C(=C)C3CC12` (stereo unspecified), 24.1 µM.
Same read-out and setting: the figure for `O=c1n(/N=C/c2ccccc2)c(=O)n2n1C1C=CC2CC1` is over 100 µM; for `COc1ccc(Br)c2c1CC(C(=O)O)CC2` (stereo unspecified) it is over 100 µM.
For the compound `CCN(CC)c1ccc(/C=C/c2cc(C)c3ccccc3n2)cc1`, the GI50 is 10.4 µM and the TGI amounted to 63.1 µM.
As for `COc1cc(Br)c(OC)c2c(OC)cc(C)cc12`, the TGI is over 100 µM.
`CCOP(=O)(OCC)C1CCCCOC1=O` (stereo unspecified) had a TGI of over 100 µM.
For the compound `CS(=O)(=O)CC1=Nc2nnc(CCCCCCCc3nnc4n3C(=O)C(CS(C)(=O)=O)=N4)n2C1=O`, the TGI is over 100 µM.
Take `O=C1C(Cl)=C(N/N=c2/[nH][nH]/c(=N/NC3=C(Cl)C(=O)c4ccccc4C3=O)c3ccccc23)C(=O)c2ccccc21`: the GI50 was 18.1 µM and the TGI was determined as 33.3 µM.
The compound `CC(C)=CCOc1cc(NC(=S)c2ccoc2C)ccc1Cl` gave a TGI of over 100 µM.
Compound `COc1cc(/C=C\c2ccccn2)cc(OC)c1OC` registered a TGI of over 100 µM.
Turning to `COc1cc2cc(C(=O)N3CC(CCl)c4c3cc(NC(=O)C(C)(C)c3ccccc3[N+](=O)[O-])c3ccccc43)[nH]c2c(OC)c1OC` (stereo unspecified), the TGI worked out at 31.7 µM.
`CCn1c(-c2nonc2N)nc2cncc(C(=O)N3CCNCC3)c21`: the GI50 was over 25 µM and the TGI is over 25 µM.
For `CC[C@H](Nc1nc(N)nc(C)c1C#N)c1nc2cccc(CN(C)c3ncc(C(=O)NO)cn3)c2c(=O)n1-c1ccccc1`, the GI50 was 1.04 µM and the TGI was found to be 6.97 µM.
On the same counts, the results for `Nc1nc(/C=C\c2ccc([N+](=O)[O-])o2)nc(N2CCN(c3ccccc3)CC2)n1` are 8.48 µM and 38.4 µM.
`CC1=C/C(=N\OCC(=O)O)CC(c2ccc(C(C)C)cc2)C1` (stereo unspecified) came in with a TGI of over 100 µM.
Turning to `O=P(O)(OCC(O)O)OCC(O)O`, the TGI is over 100 µM.
On to `C=CCC(N[C@H](CO)C(C)C)c1cn(C(=O)OCC)c2ccccc12` (stereo partly specified), for which the GI50 was 25.3 µM and the TGI is over 100 µM.
On to `Nc1ncnc2sc(=S)c3c(c12)CCC3`, for which the GI50 was 40.6 µM and the TGI was over 100 µM.
For the compound `CC12CCC(=O)C=C1CCC1C2CCC2(C)C(C(=O)Cn3cnc4c(=S)nc[nH]c43)CCC12` (stereo unspecified), the TGI is over 100 µM.
On to `COc1ccc(C(=O)/C=C/c2ccc(Cl)cc2)cc1S(=O)(=O)Nc1c(N)nc(SC)[nH]c1=O`, for which the GI50 was 2.38 µM and the TGI came out at 7.73 µM.
In turn, `O=C1CSC2(CC(/C=C/c3ccccc3O)=NN2c2cccc(S(=O)(=O)O)c2)N1c1nc2ccccc2s1` (stereo unspecified) registered a TGI of over 100 µM.
Still for that read-out and setting: the figure for `COc1ccc(C2c3cc4c(cc3C(O)C3CCC(=O)N23)OCO4)cc1` (stereo unspecified) is over 100 µM.
Consider `COc1cc2c(cc1OC)-c1ccc3cc4c(cc3c1N(CCN1CCCC1)C2)OCO4`, for which the GI50 was 0.801 µM and the TGI came to 2.61 µM.
`CCOC(=O)C=C1CCN(C(=O)c2ccccc2)CC1`: the TGI was over 100 µM.
The same measure, in the same setting: to `O=c1c2cc(S(=O)(=O)Nc3ccccc3Cl)ccc2ncn1NS(=O)(=O)c1ccc(Br)cc1` belongs over 37.5 µM; to `COC(=O)[C@H](Cc1ccccc1)NC(=O)NCCN(CCNC(=O)N[C@@H](Cc1ccccc1)C(=O)OC)C(=O)N[C@@H](Cc1ccccc1)C(=O)OC`, 36.6 µM; to `Cn1c(=O)c2[nH]c(/N=N/N3CCN(CCO)CC3)nc2n(C)c1=O`, over 100 µM.

Source of the values: PubChem BioAssay (NCI).
